These results are taken from paper PMC4336329 (PLoS ONE, 2015).

Among all 310,000 compounds or so, about 2,200 (0.71%) showed an effect of 50% or more. Effects have a minus sign here. The list shows a part of the results.

For the experiment, the target named is human ether-à-go-go-related gene (hERG) potassium channel (human, UniProt Q12809). The experiment can be described thus: primary screen, population patch clamp on CHO cells stably expressing hERG.
Chain of human ether-à-go-go-related gene (hERG) potassium channel (Q12809 whole entry, looked up): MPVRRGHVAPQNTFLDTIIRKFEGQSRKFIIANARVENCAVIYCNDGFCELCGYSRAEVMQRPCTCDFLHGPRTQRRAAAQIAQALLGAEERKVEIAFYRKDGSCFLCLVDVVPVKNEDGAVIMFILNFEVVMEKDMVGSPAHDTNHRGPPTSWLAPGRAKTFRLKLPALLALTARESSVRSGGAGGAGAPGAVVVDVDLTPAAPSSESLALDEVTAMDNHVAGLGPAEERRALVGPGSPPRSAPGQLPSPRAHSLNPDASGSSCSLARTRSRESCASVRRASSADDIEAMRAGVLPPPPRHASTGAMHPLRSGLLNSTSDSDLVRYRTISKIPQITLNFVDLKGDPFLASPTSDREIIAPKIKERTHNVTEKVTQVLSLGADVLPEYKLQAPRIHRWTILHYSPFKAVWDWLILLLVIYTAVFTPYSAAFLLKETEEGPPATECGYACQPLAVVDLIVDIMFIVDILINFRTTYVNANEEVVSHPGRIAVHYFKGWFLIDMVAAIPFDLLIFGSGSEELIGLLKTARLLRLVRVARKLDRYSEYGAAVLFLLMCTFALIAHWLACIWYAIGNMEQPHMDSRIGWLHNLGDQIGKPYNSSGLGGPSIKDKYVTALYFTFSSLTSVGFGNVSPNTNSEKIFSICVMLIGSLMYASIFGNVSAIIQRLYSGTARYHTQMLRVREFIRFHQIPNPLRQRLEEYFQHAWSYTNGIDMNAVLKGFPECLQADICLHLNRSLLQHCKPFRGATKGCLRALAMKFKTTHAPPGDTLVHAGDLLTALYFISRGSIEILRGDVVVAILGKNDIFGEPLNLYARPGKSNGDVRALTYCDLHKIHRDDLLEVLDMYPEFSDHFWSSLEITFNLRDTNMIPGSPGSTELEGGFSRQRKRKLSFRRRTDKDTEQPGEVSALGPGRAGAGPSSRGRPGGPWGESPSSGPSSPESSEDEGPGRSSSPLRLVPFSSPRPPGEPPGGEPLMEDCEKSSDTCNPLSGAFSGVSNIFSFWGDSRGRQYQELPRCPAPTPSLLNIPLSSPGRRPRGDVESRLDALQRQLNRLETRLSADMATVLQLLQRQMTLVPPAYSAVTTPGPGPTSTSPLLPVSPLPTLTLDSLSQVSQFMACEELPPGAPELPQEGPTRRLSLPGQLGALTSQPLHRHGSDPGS
`COc1ccc(O[C@H]2C=C[C@@H](c3ccccc3)O[C@@H]2CO/N=C(\C)CCN2CCc3nc(-c4ccccc4)c(-c4ccccc4)cc3C2)cc1`: the “hERG current change (%, negative = inhibition) at 1uM” value turned out to be 8.64%. For the molecule `COc1ccccc1NS(=O)(=O)c1cc(NC(=O)c2ccncc2)ccc1N1CCCC1`, the “hERG current change (%, negative = inhibition) at 1uM” value was determined as 11.6%.

On to `COc1ccc(N(CC(=O)NCc2ccccc2Cl)S(=O)(=O)c2c(C)n[nH]c2C)cc1`, for which the “hERG current change (%, negative = inhibition) at 1uM” value came out at 14.4%. `COc1cccc(OC)c1OCCOCCN1CCN(C)CC1`: the “hERG current change (%, negative = inhibition) at 1uM” value worked out at 19.8%. The figure for `O=C(Nc1ccc2c(c1)C(=O)OC2)Nc1cccc2ccccc12` is 3.96%; for `Cc1onc(-c2c(F)cccc2Cl)c1C(=O)NNC(=O)C1CCN(Cc2ccccc2)CC1` it is -0.35%; for `CCn1c(SCC(=O)Nc2nccs2)nnc1-c1cccnc1` it is 10.9%. The figure for `Cc1ccccc1Cn1nnc(C(=O)Nc2ccc3c(c2)OCCO3)c1N` is 8.16%; for `COc1cc(/C=C/C(=O)O)cc(S(=O)(=O)Nc2ccccc2C(=O)NCCc2ccccc2)c1OC` it is 16.9%.

Consider `CCN(CC)S(=O)(=O)c1ccc(OC)c(NC(=O)Cc2cccs2)c1`, for which the “hERG current change (%, negative = inhibition) at 1uM” value worked out at 13.1%. As to `O=C(Nc1ccccc1Br)C(=O)N1CCCC1`, the “hERG current change (%, negative = inhibition) at 1uM” value was found to be 5.46%. As to `C=CCOC(=O)C1=C(C)NC(=O)NC1c1ccc(Cl)cc1` (centres unmarked), the “hERG current change (%, negative = inhibition) at 1uM” value is on record as 9.35%. The figure for `O=C(COc1ccccc1Cl)Nc1ccc2oc(=O)ccc2c1` is 15.7%; for `Cc1c(OCC(=O)NCC(O)c2ccccc2)ccc2c3c(c(=O)oc12)CCCC3` (centres unmarked) it is 1.64%; for `COc1ccc(CN2CCn3ncc(C(=O)Nc4ccc(Cl)cc4Cl)c3C2=O)cc1` it is 2.84%. As to `O=C(Oc1cccc([N+](=O)[O-])c1)c1cc(-c2ccccc2)nc2ccccc12`, the “hERG current change (%, negative = inhibition) at 1uM” value is recorded as 9.64%.

Consider `CC(Sc1nnc(C2CC2)n1C1CC1)C(=O)Nc1ccccc1C#N` (centres unmarked), for which the “hERG current change (%, negative = inhibition) at 1uM” value was found to be 0.842%.

In the case of `O=C1CN(C(=O)COC(=O)c2oc3ccccc3c2COc2ccccc2)c2ccccc2N1`, the “hERG current change (%, negative = inhibition) at 1uM” value is given as 4.92%. As for `Cc1noc(N)c1C(=O)Nc1ccc(F)c(Cl)c1`, the “hERG current change (%, negative = inhibition) at 1uM” value is given as 4.28%. To `O=C1CCC(c2ccccc2)(c2ccccc2)CC1` belongs 2.17%; to `Cc1cc(NC(=O)c2cc(-c3ccccc3)on2)no1`, 12.4%. To `Cc1c(C(=O)N(C)C)sc2nc(-c3ccccn3)[nH]c(=O)c12` belongs -1.35%; to `CC1CCCC(N2CCN(C(=O)c3cccc(F)c3)CC2)C1.O=C(O)C(=O)O` (centres unmarked), 8.59%; to `COc1ccccc1/C=C(/C(=O)OCC(=O)Nc1ccc(N(C)C)cc1)c1ccccc1`, 9.09%. To `COCCN(C(=O)CCCC(=O)Nc1ccccn1)C(C(=O)NC1CCCC1)c1ccc(C)cc1` (centres unmarked) belongs 6.24%.

Turning to `CCN(CC)S(=O)(=O)c1ccc(N2Cc3ccccc3C2=N)cc1`, the “hERG current change (%, negative = inhibition) at 1uM” value came out at 1.09%. The figure for `Cc1ccccc1NC(=O)c1cc(S(=O)(=O)N2CCOCC2)cn1C` is -6.38%; for `CCN(CC)CCN(C(=O)c1cc2ccccc2cc1OC)c1nc2ccc(OC)cc2s1.Cl` it is 13.9%. The figure for `O=C(Cc1ccc(-c2ccccc2)cc1)Nc1ncccc1O` is 11.9%. `COC(=O)Cc1c(C)c2ccc(OCC(=O)N3CCCC3)c(C)c2oc1=O`: the “hERG current change (%, negative = inhibition) at 1uM” value is on record as 9.03%. To `NS(=O)(=O)c1ccc(CCNC(c2ccccc2)c2ccccc2)cc1` belongs -1.63%.

As to `COc1cccc(Nc2nnc(SCC(=O)N(CC(C)C)CC(C)C)s2)c1`, the “hERG current change (%, negative = inhibition) at 1uM” value is 14.3%.

Consider `Cc1ccc(S(=O)(=O)NNC(=O)C2CCN(S(=O)(=O)c3ccc(C)cc3)CC2)cc1`, for which the “hERG current change (%, negative = inhibition) at 1uM” value is on record as 10.8%. As to `COc1ccc(CCNC(=O)CCCn2c(=O)c3cccn3c3cccnc32)c(OC)c1OC`, the “hERG current change (%, negative = inhibition) at 1uM” value was -8.16%. To `O=C1CN(C(=S)Nc2ccc(OC(F)F)cc2)CCN1` belongs 9.99%; to `COC(=O)C1CCN(CC(N)=O)CC1`, 8.38%. Take `CC(=NCCN1CCOCC1)c1c(O)n(Cc2ccccc2)c(=O)[nH]c1=O`: the “hERG current change (%, negative = inhibition) at 1uM” value is -20.6%.

As for `O=C(CN1CCN(C(=O)CN2C(=O)NC3(CCCC3)C2=O)CC1)Nc1cccc(F)c1`, the “hERG current change (%, negative = inhibition) at 1uM” value is reported as 6.32%. To `CCN(CC)c1ccc(/C=N/N2CCN(c3ccccc3OC)CC2)cc1` belongs 12.9%. With `CCOc1cc(CNCc2cccs2)ccc1OCC(=O)NC(C)(C)C.Cl`, the “hERG current change (%, negative = inhibition) at 1uM” value is given as 10.6%. The figure for `Fc1cccc(NC(=S)N2CCN(c3ccccn3)CC2)c1` is 12.6%; for `Cc1ccc(Cn2c(NCCCn3ccnc3)nc3c2c(=O)n(C)c(=O)n3C)cc1` it is -2.85%; for `CCc1ccc(C(=O)C(C)OC(=O)c2cccc(S(=O)(=O)N3CCOCC3)c2)cc1` (centres unmarked) it is 6.87%. For `O=C(NCc1ccc(F)cc1)C1CCN(S(=O)(=O)c2cccnc2)CC1`, the “hERG current change (%, negative = inhibition) at 1uM” value came to 7.26%. With `O=C(OCC(=O)N1CCc2ccccc2C1)c1ccc(OC(F)F)cc1`, the “hERG current change (%, negative = inhibition) at 1uM” value is recorded as -17.4%. As to `COc1ccc(C(=O)Nc2nc(-c3ccccc3)c(C(C)=O)s2)c(OC)c1`, the “hERG current change (%, negative = inhibition) at 1uM” value is on record as 4.55%.

For `CN(CCc1ccccn1)C(=O)CCC1CCCN(C(=O)c2ccccn2)C1` (centres unmarked), the “hERG current change (%, negative = inhibition) at 1uM” value was 11.1%. The figure for `O=c1cc(O)nc(SCc2ccccc2)n1-c1ccccc1` is 8.41%; for `Cc1cccc(N(CC(=O)NC(C)(C)C)C(=O)CCC(=O)Nc2nccs2)c1` it is 7.95%. Take `COc1ccc(C(C)NC(=O)c2ccccc2Br)cc1OC` (centres unmarked): the “hERG current change (%, negative = inhibition) at 1uM” value was determined as 19.7%. The figure for `CC1CCN(C(=O)COC(=O)c2cccc(S(=O)(=O)N(C)c3ccccc3)c2)CC1` is 1.78%.

Consider `CC1(C)CC(O)C(C)(C)N1O` (centres unmarked), for which the “hERG current change (%, negative = inhibition) at 1uM” value is on record as 10.4%. To `COCCn1c(=O)[nH]c2cc(C(=O)OC)ccc2c1=O` belongs 14.3%. The figure for `Cc1cc2c(cc1C)C(c1cccc([N+](=O)[O-])c1)CC(=O)N2` (centres unmarked) is 9.38%; for `COc1ccc(Cc2nnc(SCC(=O)N3CCCC(C)C3)o2)cc1` (centres unmarked) it is 14.6%; for `Cc1c(NC(=O)C2C3C=CC(C3)C2C(=O)O)c(=O)n(-c2ccccc2)n1C` (centres unmarked) it is 11.3%. To `Cc1n[nH]c(C)c1S(=O)(=O)N1CCCC(C(=O)NCc2ccccc2Cl)C1` (centres unmarked) belongs -3.67%. Turning to `Cc1ccccc1Cn1nnc(-c2ccc(F)cc2)n1`, the “hERG current change (%, negative = inhibition) at 1uM” value is listed as 11.9%. With `Cc1ccc(NC(=O)CN2C(=O)c3ccccc3C2=O)c(C)c1`, the “hERG current change (%, negative = inhibition) at 1uM” value was 5.66%. To `CC1(C)Cc2c(c(N3CCCC3)nc3sc4c(N5CCN(CCO)CC5)ncnc4c23)CO1` belongs 6.67%. To `Cc1c(C(=O)Nc2c(N)nc(SCC(=O)NCC3CCCO3)[nH]c2=O)cccc1[N+](=O)[O-]` (centres unmarked) belongs 11.1%; to `CC(C)C(C(=O)NC1CCCC1)N(CC1CCCO1)C(=O)CNS(=O)(=O)c1ccc(F)cc1` (centres unmarked), 0.403%.

On to `O=C1C(=O)N(CCN2CCOCC2)C(c2ccc(Cl)cc2)/C1=C(/O)c1ccc(S(=O)(=O)N2CCOCC2)cc1` (centres unmarked), for which the “hERG current change (%, negative = inhibition) at 1uM” value came out at 21%.

In the case of `CCCN(N=Nc1cccc([N+](=O)[O-])c1)c1cccc([N+](=O)[O-])c1`, the “hERG current change (%, negative = inhibition) at 1uM” value is recorded as 6.48%.

As to `CCOc1ncccc1C(=O)OCC(=O)NCCc1ccc(OC)cc1`, the “hERG current change (%, negative = inhibition) at 1uM” value is on record as 6.01%. To `CCOc1cccc(-c2nnc3sc(C4CCCCC4)nn23)c1` belongs 6.38%; to `Cc1cccc(NC(=S)N(CCN(C)C)C(C)c2ccccn2)c1` (centres unmarked), -1.77%; to `CCNc1c(NS(=O)(=O)c2ccc([N+](=O)[O-])cc2)c(=O)oc2ccccc12`, 16.4%. The figure for `CC(=O)Cc1nsc(NC(=O)C2Cc3ccccc3C(=O)O2)n1` (centres unmarked) is 14.4%; for `O=C(NCc1ccccc1Cl)C1CCN(c2ncnc3c2nc2n3CCCCC2)CC1` it is 4.21%. The figure for `Cc1ccc(S(=O)(=O)N2CCCC2)s1` is 6.28%. In the case of `CS(=O)(=O)N(CCc1ccccc1)CC(=O)NCc1cccnc1`, the “hERG current change (%, negative = inhibition) at 1uM” value is on record as 2.13%. The figure for `COc1cccc(Oc2ccc3nnc(C(F)(F)F)n3n2)c1` is 14.2%; for `Cc1ccc(/C=C2/SC(=S)N(CCC(=O)N3CCN(C)CC3)C2=O)cc1` it is 7.56%; for `Cc1ccc(C)c(S(=O)(=O)N2CCN(C(=O)CSC(=S)N3CCCC3)CC2)c1` it is -0.507%. For `Cc1noc(C)c1COc1cccc(C(=O)NCCc2c[nH]c3ccccc23)c1`, the “hERG current change (%, negative = inhibition) at 1uM” value was 9.09%. To `O=C(/C=C/c1ccccc1[N+](=O)[O-])NNC(=O)c1ccncc1` belongs 5.38%.

Take `Nc1ncccc1C(=O)OCC(=O)NC1CCCCCC1`: the “hERG current change (%, negative = inhibition) at 1uM” value amounted to 7.78%. To `CN(Cc1nc(-c2ccccc2)no1)C1CCOCC1` belongs 8.22%; to `CC(=O)Nc1ccc(CN2CCCCCCC2)cc1`, 3.24%; to `Cn1c(CCNC(=O)c2ccccc2)nc2cc(NC(=O)c3ccco3)ccc21`, -1.52%.

In the case of `CS(=O)(=O)/C(C#N)=C/c1c(-c2ccccc2)nc2n1CCS2`, the “hERG current change (%, negative = inhibition) at 1uM” value is 10.8%.

For `Cc1[nH]c2ccc(S(N)(=O)=O)cc2c1C`, the “hERG current change (%, negative = inhibition) at 1uM” value is 13.4%. The figure for `Cc1cc([N+](=O)[O-])ccc1Nc1nc2ccccc2n2cnnc12` is 11.6%. Consider `O=C(CCn1c(=O)oc2ccccc21)NCCN1CCc2ccccc2C1`, for which the “hERG current change (%, negative = inhibition) at 1uM” value is listed as 2.42%. The figure for `COc1ccc(S(=O)(=O)N(CC(=O)NCC2CCCO2)c2ccccc2)cc1OC` (centres unmarked) is 12.7%.
